According to PubChem BioAssay AID1508642 (National Center for Advancing Translational Sciences (NCATS), 2021):
Among all 43,000 compounds or so, about 200 (0.47%) were called active. About 12% were inconclusive and are not listed. Calls follow the shape of the dose curve; as a rule, active = well fitted cell-killing curve with a large enough effect; inconclusive = small, poorly fitted or top-dose-only effect, or effect the other way; inactive = flat fitted curve, though single readings scatter. The list shows a part of the results.

experiment: Cell viability qHTS assay in S16 Pmp22-F2sN cells; settings: S16 Pmp22-F2sN Schwann cells (luciferase reporters placed in the Pmp22 gene) viability, CellTiter-Glo, 24 h; series mostly up to 57.5 µM; activity change, negative = cytotoxicity: at the top concentration; also: nearly all actives have a fitted effect of over 65% in size
Outline: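 Rat S16 Schwann reporter line, 24 h treatment with library compounds delivered at 23 nL per well. Cell viability by CellTiter-Glo luminescence.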
% is scaled to controls: 0 for no effect and ±100 for the full control effect.

Row | SMILES | activity change, negative = cytotoxicity
1 | Clc1ccc(N2CCN(Cc3nnc(-c4ccc5c(c4)OCO5)o3)CC2)cc1 | inactive: 6.43%
2 | COc1ccc(-c2cccc(NS(=O)(=O)c3cccs3)c2)nn1 | inactive: 8.92%
3 | CCOc1ccccc1CNC(=O)CCCn1c(=O)c2cccn2c2cccnc21 | inactive: 1.48%
4 | Cc1ccc2oc(-c3cccc(NC(=O)c4cccc5c(Br)cccc45)c3)nc2c1 | inactive: -4.57%
5 | Cc1ccc2onc(CC(=O)N3CCN(c4ccccc4F)CC3)c2c1 | inactive: -2.47%
6 | CC(=O)N1c2ccccc2CC1C(=O)N1CCN(c2cccc(C)c2C)CC1 (configuration not stated) | inactive: 0.553%
7 | COc1ccc(-c2cc(C)no2)cc1S(=O)(=O)N1CCN(c2ccc(C(C)=O)cc2)CC1 | inactive: 2.35%
8 | O=C(CCCn1c(=O)c2cccn2c2ccccc21)Nc1cccc(Cl)c1 | inactive: -1.29%
9 | COc1ccc(NC(=O)C2=C(C)Nc3c(C(=O)Nc4ccc(C)cc4)cnn3C2c2cccc(Cl)c2)cc1 (configuration not stated) | inactive: -6.72%
10 | CCCCN(CC)C(=O)c1c[nH]c2ccc(S(=O)(=O)Nc3cccc(OC)c3)cc2c1=O | inactive: -0.772%
11 | COc1ccc(NC(=O)CC2Nc3cccc4cccc(c34)NC2=O)cc1 (configuration not stated) | inactive: -10.7%
12 | CCOC(=O)CNC(=O)c1cc2c(=O)n(CC)c3ccccc3c2s1 | inactive: 18.6%
13 | COC(=O)c1cc2sc(C)cc2n1Cc1ccccc1 | inactive: 6.62%
14 | Cc1ccc(CNC(=O)CSc2ccc(-c3sc(-c4ccccc4)nc3C)nn2)cc1 | inactive: 1.24%
15 | CCCOC(=O)c1ccc(NC(=O)Cn2nnc3sc4c(c3c2=O)CCC(C(C)(C)C)C4)cc1 (configuration not stated) | inactive: 15%
16 | COc1ccc(-c2onc(C)c2C)cc1S(=O)(=O)Nc1ccc(OC(F)(F)F)cc1 | inactive: -18.3%
17 | Cc1ccc(CSc2oc(-c3ccco3)nc2S(=O)(=O)c2ccc(Cl)cc2)cc1 | inactive: -7.5%
18 | CCOC(=O)c1cccc(NC(=O)c2cc(S(=O)(=O)N3CCCC3)cn2C)c1 | inactive: 0.0705%
19 | O=C(Nc1cccc(C(F)(F)F)c1)c1cc2nc(-c3ccccc3)cc(C(F)(F)F)n2n1 | inactive: 6.21%
20 | CCCOc1ccc(-c2cccc(NS(=O)(=O)c3cccs3)c2)nn1 | inactive: -3.14%
21 | CCCOc1ccc(/C=C/C(=O)Nc2sc3c(c2C(=O)OCC)CCC(C)C3)cc1OC (configuration not stated) | inactive: -0.969%
22 | CC(=O)c1cc(-c2ccc(F)cc2)n(CC(=O)NC2CCCCCC2)c1C | inactive: -3.9%
23 | O=S(=O)(c1ccc(Br)cc1)c1nc(-c2ccco2)oc1SCc1ccccc1F | inactive: -2.56%
24 | COc1ccc(NC(=O)c2ccco2)cc1NC(=O)C(C)Oc1ccc(Cl)cc1Cl (configuration not stated) | inactive: -1.48%

Row | SMILES | activity change, negative = cytotoxicity
25 | CCOc1ccc(CCNC(=O)CN2C(=O)c3cccnc3Oc3ccc(C)cc32)cc1OCC | inactive: 10.1%
26 | Cc1ccc(NC(=O)c2cn(-c3ccccc3)nc2-c2ccccc2)cc1 | inactive: -2.68%
27 | CCCCn1c(SCC(=O)Nc2cccc(OC)c2)nc2ccsc2c1=O | inactive: -1.58%
28 | O=C(NCc1ccccc1)c1ccc(NC(=O)N2CCSc3ncccc32)cc1 | inactive: 11.3%
29 | COc1cc(OC)c(NC(=O)c2cnn(-c3cccc(Cl)c3C)c2C2CCN(C(=O)OC(C)(C)C)CC2)cc1Cl | inactive: -1.1%
30 | COc1ccc(-n2cc(-c3ccccc3)c3c(NCc4cccc(Cl)c4)ncnc32)cc1 | inactive: 1.92%
31 | COc1ccc(Nc2ncnc3onc(-c4ccc(Cl)cc4)c23)cc1Cl | inactive: -3.24%
32 | CCOC(=O)c1c(NC(=O)COc2cccc(C)c2C)sc2c1CCCCC2 | inactive: 17.1%
33 | CC(C)c1ccc(Nc2c(-c3ccc(N4CCOCC4)cc3)nc3ncccn23)cc1 | inactive: 0.953%
34 | Cc1ccc(C2=NN(CC(=O)NC(C)c3ccccc3)C(=O)CC2)cc1 (configuration not stated) | inactive: 5.93%
35 | COc1ccc(-c2cn3nc(N4CCC(C(=O)NCc5ccc(F)cc5)CC4)sc3n2)cc1 | inactive: 9.1%
36 | Cc1ccc(-c2ccc(=O)n(CC(=O)Nc3ccc(C(C)C)cc3)n2)cc1 | inactive: 13.6%
37 | CCOC(=O)c1ccc(NC(=O)CSc2nc(C)c(Cc3ccccc3)c(=O)[nH]2)cc1 | inactive: -0.183%
38 | C=CCOc1ccc(C2c3c(oc4ccc(C)cc4c3=O)C(=O)N2CCCN2CCOCC2)cc1 (configuration not stated) | inactive: 1.39%
39 | Cc1ccc(Cn2ccn(Cc3cccc(C(F)(F)F)c3)c(=O)c2=O)cc1 | inactive: 14.8%
40 | COc1cccc(NC(=O)CSc2nc3c([nH]c4ccccc43)c(=O)n2-c2cccc(Cl)c2)c1 | inactive: 2.72%
41 | O=C(Nc1ccc(F)c(Cl)c1)C1Cc2ccccc2CN1S(=O)(=O)c1ccc(F)cc1 (configuration not stated) | inactive: 14.5%
42 | CCc1nn(CC(=O)Nc2ccc(C)cc2C)c(=O)c2cc3sccc3n12 | inactive: -5.3%
43 | COc1ccccc1NC(=O)c1c(C)cc(C)nc1SCC(=O)Nc1cccc(C)c1 | inactive: -3.87%
44 | COCCNC(=O)CCn1c(=O)c2cc(OC)c(OC)cc2n(CC(=O)Nc2ccccc2OC)c1=O | inactive: -1.46%
45 | Cc1ccc(-n2nc(C)c3c(C)cc(=O)n(CC(=O)NC(C)C)c32)cc1 | inactive: -4.51%
46 | CCc1cccc(CC)c1N(COC)C(=O)Cn1c(C)nc2ccccc21 | inactive: -24%
47 | Cc1ccccc1Cn1c(SCc2ccc(C(=O)NC3CCCC3)cc2)nc2ccncc21 | inactive: 9.29%
